Each structure is given as a SMILES string. The source holds more than one record for some entries. This is not the full list of results. There may be further records. The values listed for one entry are repeated measurements (runs, samples, wells, individuals or studies). Signs of the kind (2×) give the number of equal values in this list.

Consider 14 molecules from PubChem BioAssay AID1963856 (Molecular Pharmacology Branch, DTP, NCI, 2024).

For the assay, the system named is LG0567-F671-PDC KRAS tumor spheroid viability. The assay is described as follows: Anticancer human tumor LG0567-F671-PDC patient-derived lung adenocarcinoma cell line growth inhibition [KRAS2]. The note with it: spheroids with HUVEC and MSC; for viability, T/C: stronger effect = lower value; for IC50: compound alone. The source says: Multicellular complex tumor spheroid response to RAS pathway inhibitors in combination with a targeted agents in patient-derived cell lines with oncogenic KRAS variants from multiple cancer types
A high-throughput screen of multi-cell type tumor spheroids was designed to identify active combinations of targeted small molecules and KRAS pathway inhibitors. Complex spheroids include a stromal component modeled by human endothelial cells (HUVEC) and fibroblasts modeled by human mesenchymal stem cells (MSCs). The concentration ranges selected for each drug and investigational agent were based upon clinically achievable concentrations if the clinical Cmax of the agent was known.
Compounds. The drugs and investigational agents: BI-3406 (NSC825286), BAY-293 (NSC824723), batoprotafib (TNO155; NSC825523), sotorasib (AMG 510; NSC818433), MRTX1257 (NSC819558), elimusertib (BAY 1895344; NSC800525), molibresib (GSK525762; NSC774829), temuterkib (LY3214996; NSC803410), venetoclax (NSC766270), alisertib (NSC759677), olaparib (NSC753686), talazoparib (NSC767125), erdafitinib (NSC781556), ipatasertib (NSC767898), cabozantinib (NSC761068), nintedanib (NSC756659), abemaciclib (NSC768073), docetaxel (NSC628503), trametinib (NSC758246), and sapanisertib (NSC764658) were obtained from the National Cancer Institute (NCI) Developmental Therapeutics Program Chemical Repository. The FDA-approved anticancer drug set is available from the Developmental Therapeutics Program. […] The stock solutions were prepared in dimethyl sulfoxide (DMSO, Sigma-Aldrich, St. Louis, MO, cat. D2650) at 800-fold the tested concentration and stored at -70 degrees C prior to their use. All drugs and investigational agents were tested over a range starting from a high concentration at or near the clinical Cmax and decreasing in half-log increments. If the clinical Cmax for an agent had not been determined, the highest concentration tested was 10 microM.
Cell Culture. All cells were maintained in an incubator at 37 degrees C and 5% CO2 with 95% humidity. The PDC lines were cultured according to standard operating procedures established by the NCI PDMR (https://pdmr.cancer.gov/sops/default.htm). Briefly, all PDCs were thawed and cultured in Matrigel-coated flasks prepared with a working solution of 1X Ham's F-12 nutrient mix, without supplementation (Invitrogen, Waltham, MA, cat. 11765054), 100 U/mL penicillin-streptomycin (Invitrogen, cat. 15140122), and 2.5% Matrigel (Corning Inc., Corning, NY, cat. 354248) for the first three passages. All PDCs were cultured in complete DMEM/F-12 media containing advanced DMEM/F-12 (Invitrogen, cat. 12634028), 4.9% defined fetal bovine serum, heat inactivated (HyClone Laboratories Inc., Logan, UT, cat. SH30070.03HI), 389 ng/mL hydrocortisone (Sigma-Aldrich, cat. H4001), 9.7 ng/mL human EGF recombinant protein (Invitrogen, cat. PHG0313), 23.4 microg/mL adenine (Sigma-Aldrich, cat. A2786), 97.3 U/mL penicillin-streptomycin (Invitrogen, cat. 15140122), 1.9 mM L-glutamine (Invitrogen, cat. 25030081), and 9.7 microM Y-27632 dihydrochloride (Tocris Bioscience, Bristol, United Kingdom, cat. 1254). The PDCs were cultured in complete DMEM/F12 media without 9.7 microM Y-27632 dihydrochloride for at least two passages prior to the screen. The established cell line HOP-62 was cultured in RPMI 1640 medium, HEPES (Invitrogen, cat. 22400105) with 10% defined fetal bovine serum (HyClone Laboratories Inc., cat. SH30070.03) and 2 mM L-glutamine (Invitrogen, cat. 25030081). The pooled donor HUVEC were cultured in endothelial cell growth medium 2 (PromoCell, Heidelberg, Germany, cat. C-22011) and the hMSC were cultured in mesenchymal stem cell growth medium 2 (PromoCell, cat. C-28009). For all experiments, HUVEC and hMSC were used at passages </=5, while the malignant cell lines were used at passages </=15. […]
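Also: drug exposure lasted seven days after spheroids formed for three days.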

For `CC1COCCN1c1cc(-c2ccnn2C)c2ccnc(-c3ccn[nH]3)c2n1` (centres undefined), the IC50 (as a rule, the midpoint of a concentration-inhibition curve) is > 3.16 µM and 256 nM. The viability, T/C (usually the ratio of treated to control) (compound alone 0.0316 µM) is listed as 94.2, 95.5, 97.8, 62.4, 82.2%. Moreover, the viability, T/C (compound alone 0.1 µM) was 80, 78.5, 76.1, 53, 73.7%. Besides, the viability, T/C (compound alone 1 µM) is listed as 63, 69.5, 68.4, 40.5, 66.9%. Also, the viability, T/C (compound alone 3.16 µM) is 60.5, 65.8, 63.6, 16.9, 68.3%.
With `CCNC(=O)CC1N=C(c2ccc(Cl)cc2)c2cc(OC)ccc2-n2c(C)nnc21` (centres undefined), the IC50 is recorded as 9.42 µM, 6.15 µM, 5.46 µM, 551 nM, 2.06 µM. Also, the viability, T/C (compound alone 1 µM) is recorded as 64.8, 70.6, 63.8, 20.1, 53.2%. Also, the viability, T/C (compound alone 3.16 µM) was 52.9, 51.3, 54.9, 14.1, 50.2%. Besides, where the note is “compound alone 10 µM”, the viability, T/C is 46.9, 48, 45.3, 4.55, 39.8%.
On to `CC1OCC2(CCN(c3cnc(Sc4ccnc(N)c4Cl)c(N)n3)CC2)C1N` (centres undefined), for which the viability, T/C (compound alone 1 µM) is reported as 106, 28.8, 29.9, 25.9, 25.4, 27.5, 28.6, 33.9, 31.3, 35.9, 31.8, 30.6, 27.4, 30.3, 29.7, 28.4, 30.5, 37.6%. In addition, the IC50 reads like this: (run of 07/12/2021) 137 nM, 1.6 µM, 130 nM, 152 nM, 222 nM, 160 nM; (run of 07/19/2021) < 100 nM, 112 nM, 150 nM, 110 nM.
As for `CC(C)NCC(C(=O)N1CCN(c2ncnc3c2C(C)CC3O)CC1)c1ccc(Cl)cc1` (centres undefined), the viability, T/C (compound alone 3.16 µM) is reported as 78, 85.4, 83.7, 20.2, 80.7%.
For `CC(C)n1nc(-c2ccc3oc(N)nc3c2)c2c(N)ncnc21`, the IC50 was > 100 nM and 5.66 nM. The viability, T/C (compound alone 0.00316 µM) was 67.3, 82.4 (2×), 85.5, 54.8%. For the same molecule, the viability, T/C (compound alone 0.01 µM) is reported as 62.3, 80.3, 76.6, 82.5, 49.3%. Also, the viability, T/C (compound alone 0.0316 µM) is recorded as 55.6, 63.1, 71.4, 71.1, 39.6%. Besides, the viability, T/C (compound alone 0.1 µM) was 53.7, 61.3, 60.6, 66.5, 33.6%.
Regarding `COc1cc2nccc(Oc3ccc(NC(=O)C4(C(=O)Nc5ccc(F)cc5)CC4)cc3)c2cc1OC`, the viability, T/C by setting is: (compound alone 3.16 µM) 45.3, 44.5, 48.9, 132, 49.5%; (compound alone 10 µM) 95.5, 94.8, 95.8, 135, 110%.
Take `CN(C)C/C=C/C(=O)Nc1cc2c(Nc3ccc(F)c(Cl)c3)ncnc2cc1O[C@H]1CCOC1`: the viability, T/C (compound alone 0.00316 µM) is 64, 72.9, 81.6, 81.5, 92.2%.
`COC(=O)c1ccc2c(C(=Nc3ccc(N(C)C(=O)CN4CCN(C)CC4)cc3)c3ccccc3)c(O)[nH]c2c1`: the viability, T/C runs as follows: (compound alone 0.0316 µM) 117, 96.6, 89.4, 93.2, 120%; (compound alone 0.316 µM) 78.8, 68.2, 97, 83.9, 79.7%.
With `COc1cc(Nc2ncc3c(n2)-c2ccc(Cl)cc2C(c2c(F)cccc2OC)=NC3)ccc1C(=O)O`, the IC50 is listed as 6.04 µM, 9.45 µM, 9.09 µM, > 10 µM. The viability, T/C (compound alone 0.1 µM) was 66.8, 90.3, 80, 85.2, 92.7%. For the same molecule, the viability, T/C (compound alone 1 µM) is reported as 59.9, 88, 77.6, 82.5, 80.2%.
As for `C=CC(=O)N1CCN(c2nc(OCC3CCCN3C)nc3c2CCN(c2cccc4cccc(C)c24)C3)CC1CC#N` (centres undefined), the viability, T/C is, setting by setting: (compound alone 0.316 µM) 33.6, 36.4, 23.2, 23.6, 31.8, 32.2, 23.1, 38.3, 42.3, 42.1, 36.7, 26, 88.7, 21.3, 27.7, 31.4, 25.1%; (compound alone 3.16 µM) 24.6, 28.8, 33.6, 35, 32, 5.63, 17.2, 15.5, 10.2, 23.7, 34.8, 32.8, 31, 33.2, 36.3, 39.6%.
As to `COc1cc2nc(C)nc(NC(C)c3cc(N)cc(C(F)(F)F)c3)c2cc1OC1CCOC1` (centres undefined), the viability, T/C is 82.7, 95.3, 85.2, 96.3, 81.5, 70.6, 70, 66.9, 76.3, 77.7, 81.1, 73.9, 83.3, 69.9, 70.2, 81.2, 77.6% (compound alone 0.1 µM); 91.9, 89, 91.8, 69.6, 65.4, 60.2, 59.4, 57.3, 65.6, 71.1, 73.9, 60, 80.4, 74.1, 81.6, 69.9, 73.3% (compound alone 1 µM); 68.5, 41.5, 66.9, 77.1, 58.2, 46.4, 69.4, 59.7, 79.7, 80.2, 80.4, 54.5, 77.4 (2×), 81.5, 56.5, 74.9% (compound alone 3.16 µM); 74.7, 44.7, 93.9, 84.6, 53.1, 42.5, 62.4, 54.4, 84, 66.4, 72.1, 57.4, 77, 80.2, 63.7, 84.3, 76% (compound alone 10 µM).
Turning to `COc1cc(OC)cc(N(CCNC(C)C)c2ccc3ncc(-c4cnn(C)c4)nc3c2)c1`, the IC50 is 9.19 µM, 7.88 µM, > 10 µM, 605 nM. Further, the viability, T/C (compound alone 0.0316 µM) is given as 93.9, 92.8, 87, 111, 85.7%. Moreover, the viability, T/C (compound alone 0.1 µM) was 89.4, 94.9, 82.5, 109, 90.6%. For the same molecule, where the note is “compound alone 1 µM”, the viability, T/C is 91.5, 93.1, 94.6, 18.9, 87.5%. For the same molecule, the viability, T/C (compound alone 3.16 µM) was 67.8, 83, 75.7, 25.2, 75.3%. Further, the viability, T/C (compound alone 10 µM) is reported as 48.6, 41.2, 54.2, 0.14, 52.1%.
`CC(=O)OC12COC1CC(O)C1(C)C(=O)C(O)C3=C(C)C(OC(=O)C(O)C(NC(=O)OC(C)(C)C)c4ccccc4)CC(O)(C(OC(=O)c4ccccc4)C21)C3(C)C` (centres undefined): the IC50 is 10 nM and > 3.16 µM.
For `CNCc1ccccc1-c1csc(C(C)Nc2nc(C)nc3cc(OC)c(OC)cc23)c1` (centres undefined), the viability, T/C was 83.3, 78.7, 71.7, 70.9, 85.9, 84.5, 74.3, 61, 82.1, 86.8, 76, 77.4, 73.2, 83.6 (2×), 84, 81.9% (compound alone 0.1 µM); 61.5, 65.7, 58.8, 51.7, 85.6, 67, 65.9, 66.5, 72.2, 64, 64.7, 69.2, 72.3, 81.2, 79.7 (2×), 75% (compound alone 0.316 µM); 86.8, 76, 74.4, 57.2, 81.5, 60.7, 53.2, 61.9, 66.5, 59.5, 69.6, 57, 65.9 (2×), 71.8, 78.2, 68.5% (compound alone 1 µM); 66.9, 65.1, 74.1, 2.28, 3.94, 6.72, 0.26, 0.18, 0.54, 71.7, 72.8, 103, 56.4, 92.2, 99.9% (compound alone 3.16 µM). Also, the IC50 (run of 07/12/2021) is 4.25, 4.14, 4.4, 1.16, 1.6, 1.24 µM.
